Data published in PubChem BioAssay (NCATS).
The inconclusive results got no clear call from the source; some entries with a clear call stand among them for comparison. For part of these data: Where the call is inconclusive, the potency comes from a doubtful curve fit. The source made the active and inactive calls. Unless noted, the call rests on the fitted dose curve; in most records, active means well fitted curve in the direction sought with a large enough effect; inconclusive means small, poorly fitted or top-dose-only effect, or another doubt; inactive means no such curve, though single readings can be large; an effect the other way counts as inactive or inconclusive.

Key:
[1] = Cell Viability - Jurkat (AID 426;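 active means dose-dependent loss of cell ATP signal giving a full or clear fitted curve, ranked by lower potency value; inconclusive means weak partial curve or response only at the top dose; inactive means no loss of viability signal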;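 further: potency means the concentration at half of the fitted maximal effect; cells exposed to compound for 40 hours at 37 °C before ATP read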); details: qHTS
Procedure, shortened: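 Seed 5000 Jurkat E6-1 cells/well; add compound; incubate 40 hr at 37 °C; add CellTiter-Glo; wait 20 min at room temperature; read luminescence. Fit concentration-response with Hill equation for AC50.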

[2] = Cell Viability - Hek293 (AID 427;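 active means compounds whose dose-response curve shows a full or clear partial loss of cell viability, called from curve shape rather than a numeric limit; inconclusive means weak partial curves or an effect only at the top dose; inactive means no dose-dependent loss of viability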;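 further: potency means the concentration at half of the fitted maximal effect; cells exposed to compound for 40 hours at 37 °C before reading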); details: qHTS
Procedure, shortened: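 Luminescent ATP read-out (CellTiter-Glo, 20 min RT) after 40 hr compound exposure at 37 °C in complete medium. Signal normalized to DMSO (basal) and 100 uM tamoxifen (100% inhibition); concentration-response fitted with the standard Hill equation to give AC50.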

[3] = Cell Viability - SK-N-SH (AID 435; calls by dose curve;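 further: potency means the concentration at half of the fitted maximal effect; compound exposure lasted 40 h at 37 °C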); details: SK-N-SH neuroblastoma cell viability qHTS
Procedure, shortened: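 Cells seeded at 1500 per well and incubated 5 hr at 37 °C. Compound added, then 40 hr at 37 °C. CellTiter-Glo added, 20 min at room temperature, luminescence read.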

[4] = Cell Viability - N2a (AID 540); details: N2a mouse neuroblastoma cell viability; activity change, negative = cytotoxicity: at 92.2 µM (top of the series);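 further: cells exposed to compound for 40 h at 37 °C; plate controls were DMSO alone for no effect and tamoxifen control for full effect; nearly all actives have a fitted effect of over 45% in size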
Procedure, shortened: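 First, 1500 N2a cells per well incubate 5 hr at 37 °C; next, compounds are added and incubated 40 hr at 37 °C; finally CellTiter-Glo is added and luminescence read after 20 min, with AC50 derived by Hill modeling.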

[5] = Cell Viability - H-4-II-E (AID 543); details: H-4-II-E rat hepatoma viability; series mostly up to 92.2 µM;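 further: potency means the concentration at half of the fitted maximal effect; cells exposed to compound for 40 hours; nearly all actives have a fitted effect of over 35% in size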
Procedure, shortened: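 Here, cytotoxicity is measured in the rat hepatoma line H-4-II-E as loss of intracellular ATP after 40 hr compound treatment, detected by luciferase luminescence.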

[6] = Cellular Toxicity (caspase-3) Jurkat (AID 655); details: Jurkat caspase-3 activation, luminescence; caspase-3 activation: at 92.2 µM (top of the series), DMSO = 0%, tamoxifen = 100%;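 further: cells exposed to compound for 16 h at 37 °C before reading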
Procedure, shortened: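 Caspase 3/7 activation is scored as increased luminescence in Jurkat cells cultured with compound for 16 hours in complete medium. AC50 values come from Hill fits of qHTS concentration-response data normalized to DMSO and 100 uM tamoxifen controls.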

[7] = Cellular Toxicity (caspase-3) H-4-II-E (AID 663); details: H-4-II-E rat hepatoma; Potency: caspase-3 activation; caspase-3 activation: at 92.2 µM (top of the series), scaled: DMSO 0%, 100 µM tamoxifen 100%;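 further: cells exposed to compound for 16 hr before readout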
Procedure, shortened: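 Rat hepatoma H-4-II-E cells (1500/well) plated 5 hr, then exposed to compound titrations for 16 hr at 37 °C. Caspase-Glo 3/7 luminescence read after 20 min at RT; data normalized to DMSO and 100 uM tamoxifen, AC50 from Hill fits.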

[8] = Cell Viability - LYMP2-001 (AID 921); details: LYMP2-001 lymphoblastoid cell viability; series mostly up to 92.2 µM; further: potency means the concentration at half of the fitted maximal effect; nearly all actives have a fitted effect of over 70% in size
Procedure, shortened: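 qHTS, 1536-well; lymphoblastoid cells, 24 hr compound, 37 C; ATP by CellTiter-Glo, 30 min RT; luminescence; Hill-fit AC50.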

[9] = MultiTox-Fluor Cytotoxicity Assay - LYMP1-002 - Dead Cells (AID 960); details: LYMP1-002 lymphoblastoid cells, dead-cell protease fluorescence; cytotoxicity (dead cells): at 46.1 µM (top of the series); further: potency means the concentration at half of the fitted maximal effect; nearly all actives have a fitted effect of over 60% in size
Procedure, shortened: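 Acute cytotoxicity in a human lymphoblastoid line is scored as rising dead-cell protease signal after 16 hr exposure at 37 C, measured fluorometrically (485/520).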

[10] = MultiTox-Fluor Cytotoxicity Assay - LYMP1-003 - Dead Cells (AID 961); details: LYMP1-003 lymphoblastoid cells, dead-cell protease fluorescence; series mostly up to 92.2 µM; further: potency means the concentration at half of the fitted maximal effect; nearly all actives have a fitted effect of over 70% in size
Procedure, shortened: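 Human lymphoblastoid LYMP1-003 cells (2500/well) were treated with compounds for 16 hr at 37 C in complete medium. Dead-cell protease release was read by bis-AAF-R110 fluorescence (Ex/Em 485/520). AC50 came from Hill fits, normalized to DMSO and 15 uM tetraoctylammonium bromide.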

[11] = Cell Viability - LYMP1-003 - Assay at 24 hr (AID 963); details: LYMP1-003 lymphoblastoid cell viability; series mostly up to 92.2 µM;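 further: plate controls were DMSO only for no effect and tetraoctylammonium bromide positive control for full effect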
Procedure, shortened: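 Acute toxicity in LYMP1-003 lymphoblastoid cells: 24 hr compound treatment at 37 C, ATP measured with CellTiter-Glo after 30 min at room temperature. AC50 derived by fitting the Hill equation to qHTS titrations.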

[12] = Cell Viability - LYMP1-003 - Assay at 40 hr (AID 964); details: LYMP1-003 lymphoblastoid viability; series mostly up to 92.2 µM; further: potency means the concentration at half of the fitted maximal effect; nearly all actives have a fitted effect of over 60% in size
Procedure, shortened: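 This qHTS cytotoxicity screen treats human lymphoblastoid cells (LYMP1-003) with compounds for 40 hr and quantifies cellular ATP via luciferase luminescence.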

[13] = Cell Viability - LYMP2-004 (AID 966); details: LYMP2-004 lymphoblastoid cell viability, qHTS; series mostly up to 92.2 µM; further: potency means the concentration at half of the fitted maximal effect; nearly all actives have a fitted effect of over 65% in size
Procedure, shortened: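 Acute toxicity is scored as a concentration-dependent drop in intracellular ATP, quantified by luciferase luminescence, in human lymphoblastoid cells exposed to compound for 24 hr. AC50 derives from Hill-equation modelling.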

[14] = Cell Viability - LYMP2-005 (AID 967); details: LYMP2-005 lymphoblastoid cell viability; series mostly up to 92.2 µM; further: potency means the concentration at half of the fitted maximal effect
Procedure, shortened: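 qHTS viability screen in LYMP2-005 cells: 24 h at 37 C with compound, ATP luminescence via CellTiter-Glo, AC50 from Hill curves.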

[15] = Cell Viability - LYMP2-009 (AID 968); details: LYMP2-009 lymphoblastoid cell viability; series mostly up to 92.2 µM; further: potency means the concentration at half of the fitted maximal effect; nearly all actives have a fitted effect of over 55% in size
[16] = Cell Viability - LYMP2-011 (AID 969); details: LYMP2-011 lymphoblastoid cells viability; series mostly up to 92.2 µM; further: potency means the concentration at half of the fitted maximal effect; nearly all actives have a fitted effect of over 60% in size
Procedure, shortened: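 Acute toxicity is scored as a concentration-dependent drop in intracellular ATP of a human lymphoblastoid line after 24 hr treatment. Values are AC50s modeled with the Hill equation.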

[17] = Cell Viability - LYMP2-013 (AID 970); details: LYMP2-013 lymphoblastoid cells viability; activity change, negative = cytotoxic: at 92.2 µM (top of the series); further: potency means the concentration at half of the fitted maximal effect; nearly all actives have a fitted effect of over 55% in size
Procedure, shortened: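 Acute toxicity was measured in human lymphoblastoid cells (2500/well) exposed to compound titrations for 24 hr, with ATP luminescence (CellTiter-Glo) as read-out and AC50 fitted by Hill equation.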

[18] = Cell Viability - LYMP2-015 (AID 971); details: LYMP2-015 lymphoblastoid cell viability; series mostly up to 92.2 µM; further: potency means the concentration at half of the fitted maximal effect; nearly all actives have a fitted effect of over 55% in size
Procedure, shortened: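 Acute toxicity was scored as a concentration-dependent drop in intracellular ATP in lymphoblastoid cells after 24 hr compound exposure in complete medium. Detection used CellTiter-Glo luciferase luminescence.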

[19] = Cell Viability - LYMP2-017 (AID 972); details: LYMP2-017 lymphoblastoid cell viability; series mostly up to 92.2 µM; further: potency means the concentration at half of the fitted maximal effect; nearly all actives have a fitted effect of over 55% in size
Procedure, shortened: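 Steps: plate 2500 lymphoblastoid cells per well; incubate 5 hr at 37 C; add compound across a concentration series and incubate 24 hr at 37 C; add CellTiter-Glo and read luminescence after 30 min at room temperature; fit Hill curves for AC50.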

[20] = Cell Viability - LYMP2-019 (AID 973); details: LYMP2-019 lymphoblastoid cell line viability; series mostly up to 92.2 µM
Procedure, shortened: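 Cells plated at 2500/well and allowed 5 hr at 37 C before compound addition. After 24 hr incubation, CellTiter-Glo reagent was added, plates sat 30 min at room temperature, and luminescence was recorded.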

[21] = Cell Viability - LYMP2-021 (AID 974); details: LYMP2-021 lymphoblastoid cells viability; series mostly up to 92.2 µM
Procedure, shortened: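 Concentration-response cytotoxicity in a human lymphoblastoid line: 24 hr treatment at 37 C in complete culture medium, tetraoctylammonium bromide as positive control, luminescent ATP quantitation as viability measure.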

[22] = Cell Viability - LYMP2-023 (AID 975); details: LYMP2-023 lymphoblastoid cell viability; series mostly up to 92.2 µM
Procedure, shortened: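 Concentration-dependent drop in intracellular ATP measures acute cytotoxicity in a human lymphoblastoid line treated for 24 hours in complete culture medium. AC50 values are taken from Hill-equation fits of qHTS data.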

[23] = Cell Viability - LYMP2-002 (AID 977); details: LYMP2-002 lymphoblastoid cell viability, qHTS; activity change, negative = cytotoxic: at 92.2 µM (top of the series);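 further: potency means the concentration at half of the fitted maximal effect; compound exposure lasted 24 h at 37 °C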
Procedure, shortened: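 Human lymphoblastoid LYMP2-002 cells, 2500 per well, exposed to compounds for 24 h at 37 C in complete medium; viability read as intracellular ATP by CellTiter-Glo luminescence, AC50 from Hill fits.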

[24] = Cell Viability - LYMP2-006 (AID 978); details: LYMP2-006 lymphoblastoid cell viability, qHTS; series mostly up to 92.2 µM; further: potency means the concentration at half of the fitted maximal effect; nearly all actives have a fitted effect of over 60% in size
Procedure, shortened: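 Concentration-dependent loss of intracellular ATP in a human lymphoblastoid line after 24 hr treatment at 37 C was measured by CellTiter-Glo luminescence, with AC50 values obtained from standard Hill-equation modelling.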

[25] = Cell Viability - LYMP2-008 (AID 980); details: LYMP2-008 lymphoblastoid cell viability, qHTS
Procedure, shortened: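 Acute cytotoxicity is scored as concentration-dependent loss of cellular ATP in a human lymphoblastoid line after 24 hr treatment at 37 C. ATP is quantified by luciferase luminescence.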

[26] = Cell Viability - LYMP2-014 (AID 983); details: LYMP2-014 lymphoblastoid cells, viability qHTS; series mostly up to 92.2 µM; further: potency means the concentration at half of the fitted maximal effect; nearly all actives have a fitted effect of over 50% in size
Procedure, shortened: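 Decrease in intracellular ATP after 24 hr treatment at 37 C, measured by luciferase luminescence, indicated cytotoxicity. Concentration-response data were fitted with the standard Hill equation to give AC50.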

[27] = Cell Viability - LYMP2-016 (AID 984); details: LYMP2-016 lymphoblastoid cell viability, qHTS; activity change, negative = cytotoxicity: at 92.2 µM (top of the series)
Procedure, shortened: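 Acute toxicity in a Coriell human lymphoblastoid line is scored as loss of intracellular ATP over 24 h of treatment in complete medium. CellTiter-Glo signal is fitted across concentrations with the Hill equation to give AC50.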

[28] = Cell Viability - LYMP2-020 (AID 986); details: activity change, negative = viability loss: at 92.2 µM (top of the series)
Procedure, shortened: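 Acute cytotoxicity in a human lymphoblastoid line is scored as a concentration-dependent fall in cellular ATP after 24 hr at 37 C in complete medium. The positive control is tetraoctylammonium bromide, and potency is given as Hill-fit AC50.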

[29] = Cell Viability - LYMP2-024 (AID 988); details: LYMP2-024 lymphoblastoid cell viability; activity change, negative = cytotoxicity: at 92.2 µM (top of the series)
Procedure, shortened: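 Acute toxicity is measured as concentration-dependent loss of intracellular ATP in a human lymphoblastoid line treated 24 hours at 37 C. Luciferase luminescence quantifies ATP; AC50 values come from standard Hill-equation modelling.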

[30] = Cell Viability - LYMP2-026 (AID 989); details: LYMP2-026 lymphoblastoid cell viability, qHTS; series mostly up to 92.2 µM; further: potency means the concentration at half of the fitted maximal effect; nearly all actives have a fitted effect of over 50% in size
Procedure, shortened: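 Concentration-dependent loss of intracellular ATP in human lymphoblastoid cells after 24 hr at 37 C, quantified by luciferase luminescence. AC50 derived from standard Hill equation.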
Tags describe the fitted curve by direction and shape.

O=C(OCC1CO1)C1CCCCC1C(=O)OCC1CO1 (stereo not given)
active: Potency [5] 50.1 µM | Potency [21] 50.1 µM
inconclusive: Potency [1] 62.8 µM [partial curve] | Potency [2] 114 µM [partial curve] | Potency [3] 139 µM [partial curve] | caspase-3 activation [6] 74.2% | Potency [8] 50.1 µM [cytotoxic, partial curve, poor fit] | Potency [9] 15.8 µM [cytotoxic, partial curve, poor fit] | Potency [10] 50.1 µM [cytotoxic, single point] | Potency [12] 39.8 µM [cytotoxic, partial curve] | Potency [13] 50.1 µM [cytotoxic, partial curve, poor fit] | Potency [14] 39.8 µM [cytotoxic, partial curve, poor fit] | Potency [15] 79.4 µM [cytotoxic, single point] | Potency [16] 50.1 µM [cytotoxic, partial curve] | Potency [17] 79.4 µM [cytotoxic, single point] | Potency [18] 50.1 µM [cytotoxic, partial curve, poor fit] | Potency [19] 79.4 µM [cytotoxic, single point] | Potency [20] 50.1 µM [cytotoxic, partial curve, poor fit] | Potency [22] 79.4 µM [cytotoxic, single point] | Potency [23] 50.1 µM [cytotoxic, single point] | Potency [24] 50.1 µM [cytotoxic, partial curve, poor fit] | Potency [25] 50.1 µM [cytotoxic, partial curve, poor fit] | Potency [26] 79.4 µM [cytotoxic, single point] | Potency [27] 50.1 µM [cytotoxic, partial curve, poor fit] | Potency [28] 79.4 µM [cytotoxic, partial curve, poor fit] | Potency [29] 39.8 µM [cytotoxic, partial curve] | Potency [30] 79.4 µM [cytotoxic, single point]
inactive: Potency [4] | Potency [7] | Potency [11]
